Reference: publication PMC10163088
Results are given in words; binding and its absence hold for the method and conditions named. Binding seen in cells or lysates may run through a third protein. Some results given as binding are weak or reduced against the parent protein; the word gives no strength. Tags and fused reporters may be left off the sequences shown.

The chains behind the UniProt entries cited, without tags or fusion partners.
UniProt P22579: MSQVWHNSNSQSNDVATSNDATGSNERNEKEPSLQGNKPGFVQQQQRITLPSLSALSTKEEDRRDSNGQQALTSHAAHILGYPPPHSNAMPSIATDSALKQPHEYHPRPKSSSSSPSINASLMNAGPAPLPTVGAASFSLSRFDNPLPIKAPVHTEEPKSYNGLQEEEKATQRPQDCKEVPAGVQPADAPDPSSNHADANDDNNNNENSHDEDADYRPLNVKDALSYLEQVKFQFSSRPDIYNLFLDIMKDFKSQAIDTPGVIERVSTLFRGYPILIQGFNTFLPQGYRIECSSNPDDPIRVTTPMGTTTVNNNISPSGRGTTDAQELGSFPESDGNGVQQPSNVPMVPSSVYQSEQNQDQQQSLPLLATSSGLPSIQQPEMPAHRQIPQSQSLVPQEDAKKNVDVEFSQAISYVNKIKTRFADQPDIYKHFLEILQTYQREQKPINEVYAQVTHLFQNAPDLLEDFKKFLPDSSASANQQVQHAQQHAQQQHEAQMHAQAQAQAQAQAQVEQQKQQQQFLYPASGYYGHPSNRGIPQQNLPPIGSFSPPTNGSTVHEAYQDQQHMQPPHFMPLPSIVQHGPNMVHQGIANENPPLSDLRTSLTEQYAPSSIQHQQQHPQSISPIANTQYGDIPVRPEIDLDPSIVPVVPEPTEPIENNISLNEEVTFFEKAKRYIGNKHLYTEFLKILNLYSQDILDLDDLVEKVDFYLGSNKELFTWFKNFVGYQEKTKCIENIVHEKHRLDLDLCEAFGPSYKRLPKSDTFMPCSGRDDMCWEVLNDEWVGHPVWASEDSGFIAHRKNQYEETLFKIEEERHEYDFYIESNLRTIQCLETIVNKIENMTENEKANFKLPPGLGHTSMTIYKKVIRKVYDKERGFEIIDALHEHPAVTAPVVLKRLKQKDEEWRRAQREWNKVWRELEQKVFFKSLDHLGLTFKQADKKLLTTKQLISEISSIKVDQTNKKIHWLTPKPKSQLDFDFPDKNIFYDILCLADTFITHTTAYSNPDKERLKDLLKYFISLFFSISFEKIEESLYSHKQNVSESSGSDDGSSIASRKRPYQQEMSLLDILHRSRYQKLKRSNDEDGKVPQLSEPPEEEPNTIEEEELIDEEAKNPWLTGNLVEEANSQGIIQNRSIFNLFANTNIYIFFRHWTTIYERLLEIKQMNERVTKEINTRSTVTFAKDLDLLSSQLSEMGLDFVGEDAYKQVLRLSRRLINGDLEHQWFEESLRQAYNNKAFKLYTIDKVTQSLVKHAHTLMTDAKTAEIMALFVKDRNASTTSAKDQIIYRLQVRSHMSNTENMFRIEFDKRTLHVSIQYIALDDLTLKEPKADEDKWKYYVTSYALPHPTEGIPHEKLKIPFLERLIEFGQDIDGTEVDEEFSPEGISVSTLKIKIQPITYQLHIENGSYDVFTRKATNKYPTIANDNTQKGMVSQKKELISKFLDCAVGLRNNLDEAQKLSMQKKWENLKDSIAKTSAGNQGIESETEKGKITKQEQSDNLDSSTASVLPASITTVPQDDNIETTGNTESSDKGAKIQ
UniProt P16649: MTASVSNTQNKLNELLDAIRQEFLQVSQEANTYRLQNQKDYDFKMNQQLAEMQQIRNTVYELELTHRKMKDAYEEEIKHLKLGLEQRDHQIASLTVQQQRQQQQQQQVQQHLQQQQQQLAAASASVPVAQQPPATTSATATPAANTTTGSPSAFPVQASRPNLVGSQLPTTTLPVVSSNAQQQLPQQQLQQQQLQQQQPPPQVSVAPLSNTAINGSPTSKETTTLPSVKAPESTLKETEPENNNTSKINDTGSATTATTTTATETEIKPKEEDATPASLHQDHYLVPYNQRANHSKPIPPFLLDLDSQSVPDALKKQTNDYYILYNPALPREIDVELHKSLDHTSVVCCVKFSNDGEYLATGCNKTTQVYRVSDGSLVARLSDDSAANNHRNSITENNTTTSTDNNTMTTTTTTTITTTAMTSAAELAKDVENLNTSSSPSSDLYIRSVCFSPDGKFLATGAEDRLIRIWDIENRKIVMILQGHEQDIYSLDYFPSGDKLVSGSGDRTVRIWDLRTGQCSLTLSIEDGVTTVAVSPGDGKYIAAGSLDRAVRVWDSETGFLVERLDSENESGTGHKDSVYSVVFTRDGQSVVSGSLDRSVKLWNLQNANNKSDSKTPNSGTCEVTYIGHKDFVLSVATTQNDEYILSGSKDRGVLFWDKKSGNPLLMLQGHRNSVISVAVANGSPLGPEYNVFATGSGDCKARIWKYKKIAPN

Key:
Assay in all cases: pull-down; GST fusions of repressors (full-length or length variants) immobilised on GSH sepharose, incubated with bacterial total protein extracts containing HA-tagged Sin3, Cyc8 or Tup1 (or Tup1 length variants); elution with free GSH, anti-HA blot (Figs. 1, 3, 4, 5); only the target purified
[1] = molecular target: T1, GST-Cti6 (full-length) (S. cerevisiae) (UniProt Q08923)
T1 sequence: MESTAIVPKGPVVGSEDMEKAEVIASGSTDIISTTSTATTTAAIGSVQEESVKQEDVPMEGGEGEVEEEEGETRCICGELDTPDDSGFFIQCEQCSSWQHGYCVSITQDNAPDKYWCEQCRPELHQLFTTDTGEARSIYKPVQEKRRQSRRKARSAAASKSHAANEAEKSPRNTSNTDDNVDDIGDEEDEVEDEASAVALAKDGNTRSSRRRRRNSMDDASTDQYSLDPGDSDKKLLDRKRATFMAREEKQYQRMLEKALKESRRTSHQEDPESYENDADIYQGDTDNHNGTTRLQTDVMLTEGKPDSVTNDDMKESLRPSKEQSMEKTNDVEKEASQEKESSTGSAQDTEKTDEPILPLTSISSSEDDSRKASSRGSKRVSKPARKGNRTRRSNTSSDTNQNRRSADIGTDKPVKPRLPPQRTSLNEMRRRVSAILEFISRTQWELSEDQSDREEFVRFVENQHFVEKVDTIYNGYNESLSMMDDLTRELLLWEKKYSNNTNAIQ

[2] = molecular target: T2, GST-Mot3 (full-length) (S. cerevisiae) (UniProt P54785)
T2 sequence: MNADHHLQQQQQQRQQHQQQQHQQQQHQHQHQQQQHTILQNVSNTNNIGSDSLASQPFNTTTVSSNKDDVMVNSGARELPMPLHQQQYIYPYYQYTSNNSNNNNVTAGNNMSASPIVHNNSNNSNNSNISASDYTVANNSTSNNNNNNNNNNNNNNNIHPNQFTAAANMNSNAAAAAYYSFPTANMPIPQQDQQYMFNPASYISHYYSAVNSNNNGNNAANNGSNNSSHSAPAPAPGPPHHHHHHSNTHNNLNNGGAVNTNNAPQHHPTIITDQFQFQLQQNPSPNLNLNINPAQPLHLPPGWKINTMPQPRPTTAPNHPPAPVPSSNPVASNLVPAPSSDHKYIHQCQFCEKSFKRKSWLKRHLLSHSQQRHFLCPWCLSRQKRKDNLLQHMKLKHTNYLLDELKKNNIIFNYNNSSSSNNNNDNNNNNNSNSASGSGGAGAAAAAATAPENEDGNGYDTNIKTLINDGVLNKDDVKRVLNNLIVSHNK

[3] = molecular target: T3, GST-Rox1 (full-length) (S. cerevisiae) (UniProt P25042)
T3 sequence: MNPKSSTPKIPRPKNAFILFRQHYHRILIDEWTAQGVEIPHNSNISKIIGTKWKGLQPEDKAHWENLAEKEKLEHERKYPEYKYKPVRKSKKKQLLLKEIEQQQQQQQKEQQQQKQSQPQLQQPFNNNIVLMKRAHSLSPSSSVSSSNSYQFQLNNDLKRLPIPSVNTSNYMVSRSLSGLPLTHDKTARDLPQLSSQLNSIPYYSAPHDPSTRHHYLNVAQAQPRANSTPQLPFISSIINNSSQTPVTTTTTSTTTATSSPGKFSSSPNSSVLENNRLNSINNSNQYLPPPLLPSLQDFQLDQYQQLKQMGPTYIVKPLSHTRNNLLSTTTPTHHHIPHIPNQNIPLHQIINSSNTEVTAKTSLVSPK

[4] = molecular target: T4, GST-Ume6 aa 508-594 (S. cerevisiae)
T4 sequence: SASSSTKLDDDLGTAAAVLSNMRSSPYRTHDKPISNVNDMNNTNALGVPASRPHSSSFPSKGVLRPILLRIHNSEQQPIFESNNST

[5] = molecular target: T5, GST-Yox1 (full-length) (S. cerevisiae) (UniProt P34161)
T5 sequence: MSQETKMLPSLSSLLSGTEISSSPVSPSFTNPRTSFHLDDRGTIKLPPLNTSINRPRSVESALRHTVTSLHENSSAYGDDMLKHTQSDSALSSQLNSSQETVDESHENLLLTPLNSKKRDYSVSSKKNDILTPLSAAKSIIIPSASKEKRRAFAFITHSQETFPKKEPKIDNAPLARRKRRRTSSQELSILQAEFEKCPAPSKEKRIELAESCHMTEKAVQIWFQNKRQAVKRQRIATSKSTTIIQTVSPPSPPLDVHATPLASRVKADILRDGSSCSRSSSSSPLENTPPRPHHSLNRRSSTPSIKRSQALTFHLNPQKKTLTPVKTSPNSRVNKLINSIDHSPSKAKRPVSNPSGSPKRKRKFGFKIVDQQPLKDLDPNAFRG

Measured: binding

HA3-Sin3 (full-length, aa 1-1536; pSW11) (from UniProt P22579 1-1536)
binds: all assays above

HA3-Tup1 (full-length; pFK76) (from UniProt P16649 1-713)
binds: all assays above

B1: HA3-Cyc8 (aa 1-398 with 10 TPR motifs; pFK77) (domain or fragment, UniProt P14922 1-398)
chain: MNPGGEQTIMEQPAQQQQQQQQQQQQQQQQAAVPQQPLDPLTQSTAETWLSIASLAETLGDGDRAAMAYDATLQFNPSSAKALTSLAHLYRSRDMFQRAAELYERALLVNPELSDVWATLGHCYLMLDDLQRAYNAYQQALYHLSNPNVPKLWHGIGILYDRYGSLDYAEEAFAKVLELDPHFEKANEIYFRLGIIYKHQGKWSQALECFRYILPQPPAPLQEWDIWFQLGSVLESMGEWQGAKEAYEHVLAQNQHHAKVLQQLGCLYGMSNVQFYDPQKALDYLLKSLEADPSDATTWYHLGRVHMIRTDYTAAYDAFQQAVNRDSRNPIFWCSIGVLYYQISQYRDALDAYTRAIRLNPYISEVWYDLGTLYETCNNQLSDALDAYKQAARLDVNN
binds: all assays above
